These are yes or no findings as the source states them, for the method shown. Some results given as binding are weak or reduced against the parent protein; the word gives no strength.

Holding throughout (experiment): two-hybrid; ORFs in pGADT7 (AD, prey; strain Y187) or pGBKT7 (BD, bait; strain Y2HGold), pairwise mating; diploids grown 3 days at 30 °C on double-dropout (SDM/-Leu/-Trp/X-α-Gal/AbA) and quadruple-dropout (SDM/-Leu/-Trp/-Ade-His/X-α-Gal/AbA) medium; growth on quadruple dropout read as interaction
Test [1] addresses T1, Beauveria bassiana photolyase Phr1 (B. bassiana) (UniProt J4KQS2).
T1 sequence: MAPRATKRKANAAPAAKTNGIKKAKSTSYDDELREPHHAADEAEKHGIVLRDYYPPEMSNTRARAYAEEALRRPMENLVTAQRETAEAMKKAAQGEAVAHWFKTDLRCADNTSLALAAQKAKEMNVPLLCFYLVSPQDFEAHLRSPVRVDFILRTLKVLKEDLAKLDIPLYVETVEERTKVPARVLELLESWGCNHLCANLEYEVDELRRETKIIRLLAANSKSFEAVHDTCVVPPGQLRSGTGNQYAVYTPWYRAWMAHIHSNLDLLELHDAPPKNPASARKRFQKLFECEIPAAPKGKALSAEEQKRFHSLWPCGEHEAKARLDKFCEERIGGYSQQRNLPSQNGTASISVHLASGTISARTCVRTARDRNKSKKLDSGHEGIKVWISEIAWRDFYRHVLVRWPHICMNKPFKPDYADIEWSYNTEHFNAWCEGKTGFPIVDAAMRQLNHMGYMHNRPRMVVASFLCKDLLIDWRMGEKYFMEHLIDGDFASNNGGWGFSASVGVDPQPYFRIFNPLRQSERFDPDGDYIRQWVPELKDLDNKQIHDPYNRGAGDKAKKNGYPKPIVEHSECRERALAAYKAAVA

Test [2] addresses T2, Beauveria bassiana Rad10 (B. bassiana) (UniProt J4UQI9).
T2 sequence: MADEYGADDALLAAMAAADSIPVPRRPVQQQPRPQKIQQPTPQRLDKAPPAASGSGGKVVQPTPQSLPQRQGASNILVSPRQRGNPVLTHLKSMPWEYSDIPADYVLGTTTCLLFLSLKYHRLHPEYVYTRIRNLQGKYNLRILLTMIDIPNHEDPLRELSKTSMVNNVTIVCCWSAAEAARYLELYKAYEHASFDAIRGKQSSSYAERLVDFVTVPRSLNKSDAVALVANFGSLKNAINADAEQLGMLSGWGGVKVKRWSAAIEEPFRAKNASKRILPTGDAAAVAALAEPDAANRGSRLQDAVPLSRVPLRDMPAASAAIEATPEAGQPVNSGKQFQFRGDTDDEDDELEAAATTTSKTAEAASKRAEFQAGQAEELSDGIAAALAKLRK

Test [3] has as its target T3, Beauveria bassiana Rad1 (B. bassiana) (UniProt J4VYF0).
T3 sequence: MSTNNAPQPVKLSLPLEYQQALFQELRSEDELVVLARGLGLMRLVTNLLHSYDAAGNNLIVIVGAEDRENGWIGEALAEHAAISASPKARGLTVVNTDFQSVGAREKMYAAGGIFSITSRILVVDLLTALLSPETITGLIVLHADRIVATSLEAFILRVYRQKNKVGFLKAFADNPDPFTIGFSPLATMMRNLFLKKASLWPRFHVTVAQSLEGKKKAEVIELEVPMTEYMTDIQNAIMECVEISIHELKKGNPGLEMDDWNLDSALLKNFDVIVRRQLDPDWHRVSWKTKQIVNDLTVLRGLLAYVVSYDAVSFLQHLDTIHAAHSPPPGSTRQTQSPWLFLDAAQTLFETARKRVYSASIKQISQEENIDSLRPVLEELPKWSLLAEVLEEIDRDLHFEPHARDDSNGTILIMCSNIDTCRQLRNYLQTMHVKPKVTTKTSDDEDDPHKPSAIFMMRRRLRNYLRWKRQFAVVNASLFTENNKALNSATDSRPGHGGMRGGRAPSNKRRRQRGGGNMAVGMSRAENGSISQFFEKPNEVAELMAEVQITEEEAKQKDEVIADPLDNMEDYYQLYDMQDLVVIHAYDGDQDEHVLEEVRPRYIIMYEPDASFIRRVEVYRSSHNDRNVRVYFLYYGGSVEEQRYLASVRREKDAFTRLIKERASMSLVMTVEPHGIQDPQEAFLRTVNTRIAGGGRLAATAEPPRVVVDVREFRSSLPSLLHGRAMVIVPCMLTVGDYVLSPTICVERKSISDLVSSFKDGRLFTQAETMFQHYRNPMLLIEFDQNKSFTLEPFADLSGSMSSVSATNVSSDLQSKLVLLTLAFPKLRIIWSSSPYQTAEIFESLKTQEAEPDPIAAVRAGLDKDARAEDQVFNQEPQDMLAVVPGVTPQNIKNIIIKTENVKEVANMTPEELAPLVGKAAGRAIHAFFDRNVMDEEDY

B1: Beauveria bassiana Rad1 (protein, UniProt J4VYF0 1-940)
chain: MSTNNAPQPVKLSLPLEYQQALFQELRSEDELVVLARGLGLMRLVTNLLHSYDAAGNNLIVIVGAEDRENGWIGEALAEHAAISASPKARGLTVVNTDFQSVGAREKMYAAGGIFSITSRILVVDLLTALLSPETITGLIVLHADRIVATSLEAFILRVYRQKNKVGFLKAFADNPDPFTIGFSPLATMMRNLFLKKASLWPRFHVTVAQSLEGKKKAEVIELEVPMTEYMTDIQNAIMECVEISIHELKKGNPGLEMDDWNLDSALLKNFDVIVRRQLDPDWHRVSWKTKQIVNDLTVLRGLLAYVVSYDAVSFLQHLDTIHAAHSPPPGSTRQTQSPWLFLDAAQTLFETARKRVYSASIKQISQEENIDSLRPVLEELPKWSLLAEVLEEIDRDLHFEPHARDDSNGTILIMCSNIDTCRQLRNYLQTMHVKPKVTTKTSDDEDDPHKPSAIFMMRRRLRNYLRWKRQFAVVNASLFTENNKALNSATDSRPGHGGMRGGRAPSNKRRRQRGGGNMAVGMSRAENGSISQFFEKPNEVAELMAEVQITEEEAKQKDEVIADPLDNMEDYYQLYDMQDLVVIHAYDGDQDEHVLEEVRPRYIIMYEPDASFIRRVEVYRSSHNDRNVRVYFLYYGGSVEEQRYLASVRREKDAFTRLIKERASMSLVMTVEPHGIQDPQEAFLRTVNTRIAGGGRLAATAEPPRVVVDVREFRSSLPSLLHGRAMVIVPCMLTVGDYVLSPTICVERKSISDLVSSFKDGRLFTQAETMFQHYRNPMLLIEFDQNKSFTLEPFADLSGSMSSVSATNVSSDLQSKLVLLTLAFPKLRIIWSSSPYQTAEIFESLKTQEAEPDPIAAVRAGLDKDARAEDQVFNQEPQDMLAVVPGVTPQNIKNIIIKTENVKEVANMTPEELAPLVGKAAGRAIHAFFDRNVMDEEDY
As to B1, the binding result in test [1] was “no binding”; in test [2] it was “binds”.

B2: Beauveria bassiana Rad10 (protein, UniProt J4UQI9 1-392)
chain: MADEYGADDALLAAMAAADSIPVPRRPVQQQPRPQKIQQPTPQRLDKAPPAASGSGGKVVQPTPQSLPQRQGASNILVSPRQRGNPVLTHLKSMPWEYSDIPADYVLGTTTCLLFLSLKYHRLHPEYVYTRIRNLQGKYNLRILLTMIDIPNHEDPLRELSKTSMVNNVTIVCCWSAAEAARYLELYKAYEHASFDAIRGKQSSSYAERLVDFVTVPRSLNKSDAVALVANFGSLKNAINADAEQLGMLSGWGGVKVKRWSAAIEEPFRAKNASKRILPTGDAAAVAALAEPDAANRGSRLQDAVPLSRVPLRDMPAASAAIEATPEAGQPVNSGKQFQFRGDTDDEDDELEAAATTTSKTAEAASKRAEFQAGQAEELSDGIAAALAKLRK
B2: the binding result in test [1] is given as “no binding”; in test [3], “binds”.

Source of the values: publication PMC9692854.
